Values of other authors, collected in PMC7997640, “Potential anti-COVID-19 agents, cepharanthine and nelfinavir, and their usage for combination treatment” (iScience, 2021).

System: SARS-CoV-2 spike
Conditions: ref Musarrat et al., 2020; cited from earlier work

Cc1c(O)cccc1C(=O)N[C@@H](CSc1ccccc1)[C@H](O)CN1C[C@H]2CCCC[C@H]2C[C@H]1C(=O)NC(C)(C)C [NFV, nelfinavir]
concentration inhibiting SARS-CoV-2 spike-mediated membrane fusion: over 10 μM
